# Measurements taken from the supplement of paper PMC8728848.
# Some of the results follow.
# Columns and labels:
# Assay in all cases: glycan array binding signal (z-score within array); higher = stronger binding
# Settings in all cases: glycan notation: IUPAC condensed, linker removed
# [1] = molecular target: Gal(b1-3)[Fuc(a1-4)]GlcNAc(b1-3)Gal(b1-4)[Fuc(a1-3)]GlcNAc
# Summary of the method: (§1)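 Negative Z-scores can be read as non-binding. The Z-score is calculated within each array and then averaged across arrays of one protein sequence at different concentrations or buffers and across linkers. Arrays, 3228 in all, were curated from the Consortium for Functional Glycomics database and kept only where the protein sequence was available.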
# [2] = molecular target: Gal(b1-3)[GlcNAc(b1-6)]GalNAc
# Summary of the method: as §1
# [3] = molecular target: Gal(b1-3)[Neu5Ac(a2-6)]GalNAc
# Summary of the method: as §1
# [4] = molecular target: Gal(b1-3)[Neu5Ac(a2-6)]GlcNAc(b1-6)Gal(b1-4)Glc
# Summary of the method: as §1
# [5] = molecular target: Gal(b1-3)[Neu5Ac(b2-6)]GalNAc
# Summary of the method: as §1
# [6] = molecular target: Gal(b1-4)GalNAc(a1-3)[Fuc(a1-2)]Gal(b1-4)GlcNAc
# Summary of the method: as §1
# [7] = molecular target: Gal(b1-4)GalNAc(b1-3)[Fuc(a1-2)]Gal(b1-4)GlcNAc
# Summary of the method: as §1
# Gal(b1-4)Glc = molecular target: Gal(b1-4)Glc
# Summary of the method: as §1
# Gal(b1-4)Glc6S = molecular target: Gal(b1-4)Glc6S
# Summary of the method: as §1
# Gal(b1-4)GlcNAc = molecular target: Gal(b1-4)GlcNAc
# Summary of the method: as §1
# [8] = molecular target: Gal(b1-4)GlcNAc(a1-6)Gal(b1-4)GlcNAc
# Summary of the method: as §1
# [9] = molecular target: Gal(b1-4)GlcNAc(b1-2)Man(a1-3)[Gal(b1-4)GlcNAc(b1-2)Man(a1-6)]Man(b1-4)GlcNAc(b1-4)GlcNAc
# Summary of the method: as §1
# [10] = molecular target: Gal(b1-4)GlcNAc(b1-3)Gal(b1-3)GlcNAc
# Summary of the method: as §1
# [11] = molecular target: Gal(b1-4)GlcNAc(b1-3)Gal(b1-4)Glc
# Summary of the method: as §1
# [12] = molecular target: Gal(b1-4)GlcNAc(b1-3)Gal(b1-4)GlcNAc
# Summary of the method: as §1
# [13] = molecular target: Gal(b1-4)GlcNAc(b1-3)Gal(b1-4)GlcNAc(b1-3)Gal(b1-4)GlcNAc
# Summary of the method: as §1
# [14] = molecular target: Gal(b1-4)GlcNAc(b1-3)Gal(b1-4)[Fuc(a1-3)]GlcNAc(b1-3)Gal(b1-4)[Fuc(a1-3)]GlcNAc
# Summary of the method: as §1
# [15] = molecular target: Gal(b1-4)GlcNAc(b1-3)GalNAc
# Summary of the method: as §1
# [16] = molecular target: Gal(b1-4)GlcNAc(b1-3)[Gal(b1-4)GlcNAc(b1-6)]Gal(b1-4)GlcNAc
# Summary of the method: as §1
# [17] = molecular target: Gal(b1-4)GlcNAc(b1-3)[Gal(b1-4)GlcNAc(b1-6)]GalNAc
# Summary of the method: as §1
# [18] = molecular target: Gal(b1-4)GlcNAc(b1-3)[GlcNAc(b1-6)]Gal(b1-4)GlcNAc
# Summary of the method: as §1
# [19] = molecular target: Gal(b1-4)GlcNAc(b1-6)Gal(b1-4)GlcNAc
# Summary of the method: as §1
# [20] = molecular target: Gal(b1-4)GlcNAc(b1-6)Gal(b1-4)GlcNAc(b1-6)GalNAc
# Summary of the method: as §1
# [21] = molecular target: Gal(b1-4)GlcNAc(b1-6)GalNAc
# Summary of the method: as §1
# [22] = molecular target: Gal(b1-4)GlcNAc(b1-6)[Gal(b1-3)]GalNAc
# Summary of the method: as §1
# Gal3S(b1-3)GalNAc = molecular target: Gal3S(b1-3)GalNAc
# Summary of the method: as §1
# Gal3S(b1-3)GlcNAc = molecular target: Gal3S(b1-3)GlcNAc
# Summary of the method: as §1
# [23] = molecular target: Gal3S(b1-3)[Fuc(a1-4)]GlcNAc
# Summary of the method: as §1
# Gal3S(b1-4)Glc = molecular target: Gal3S(b1-4)Glc
# Summary of the method: as §1
# Gal3S(b1-4)Glc6S = molecular target: Gal3S(b1-4)Glc6S
# Summary of the method: as §1
# Gal3S(b1-4)GlcNAc = molecular target: Gal3S(b1-4)GlcNAc
# Summary of the method: as §1
# Gal3S(b1-4)GlcNAc6S = molecular target: Gal3S(b1-4)GlcNAc6S
# Summary of the method: as §1
# [24] = molecular target: Gal3S(b1-4)[Fuc(a1-3)]Glc
# Summary of the method: as §1
# Gal3S4S(b1-4)GlcNAc = molecular target: Gal3S4S(b1-4)GlcNAc
# Summary of the method: as §1
# Gal3S6S(b1-4)GlcNAc = molecular target: Gal3S6S(b1-4)GlcNAc
# Summary of the method: as §1
# Gal3S6S(b1-4)GlcNAc6S = molecular target: Gal3S6S(b1-4)GlcNAc6S
# Summary of the method: as §1
# Gal4S(b1-4)GlcNAc = molecular target: Gal4S(b1-4)GlcNAc
# Summary of the method: as §1
# Gal4S6S(b1-4)GlcNAc = molecular target: Gal4S6S(b1-4)GlcNAc
# Summary of the method: as §1
# Gal6S(b1-4)Glc = molecular target: Gal6S(b1-4)Glc
# Summary of the method: as §1
# Gal6S(b1-4)Glc6S = molecular target: Gal6S(b1-4)Glc6S
# Summary of the method: as §1
# Gal6S(b1-4)GlcNAc = molecular target: Gal6S(b1-4)GlcNAc
# Summary of the method: as §1
# Gal6S(b1-4)GlcNAc6S = molecular target: Gal6S(b1-4)GlcNAc6S
# Summary of the method: as §1
# GalNAc(a1-3)Gal = molecular target: GalNAc(a1-3)Gal
# Summary of the method: as §1
# GalNAc(a1-3)GalNAc = molecular target: GalNAc(a1-3)GalNAc
# Summary of the method: as §1
# GalNAc(b1-3)Gal = molecular target: GalNAc(b1-3)Gal
# Summary of the method: as §1
binder,measurement,setting,value
TbCVNHOb (Tuber borchii) (protein) MSFYASSEDVRTIEEGGRTWLVGRARRADGSWQDIKLDLDNIIGNRDGHLTWGEQNFTQSASDIRFNFEGGSNVPVLRAKLRNAAGGEQESDLNLGERLTNNNGDLVFN,glycan array binding signal (z-score),[1],-0.198
same,glycan array binding signal (z-score),[2],-0.231
same,glycan array binding signal (z-score),[3],-0.29
same,glycan array binding signal (z-score),[4],1.4
same,glycan array binding signal (z-score),[5],0.035
same,glycan array binding signal (z-score),[6],-0.159
same,glycan array binding signal (z-score),[7],-0.093
same,glycan array binding signal (z-score),Gal(b1-4)Glc,-0.296
same,glycan array binding signal (z-score),Gal(b1-4)Glc6S,-0.217
same,glycan array binding signal (z-score),Gal(b1-4)GlcNAc,-0.072
same,glycan array binding signal (z-score),[8],-0.098
same,glycan array binding signal (z-score),[9],-0.139
same,glycan array binding signal (z-score),[10],-0.167
same,glycan array binding signal (z-score),[11],2.32
same,glycan array binding signal (z-score),[12],-0.064
same,glycan array binding signal (z-score),[13],-0.25
same,glycan array binding signal (z-score),[14],-0.056
same,glycan array binding signal (z-score),[15],-0.113
same,glycan array binding signal (z-score),[16],-0.173
same,glycan array binding signal (z-score),[17],-0.321
same,glycan array binding signal (z-score),[18],-0.156
same,glycan array binding signal (z-score),[19],-0.142
same,glycan array binding signal (z-score),[20],-0.296
same,glycan array binding signal (z-score),[21],-0.122
same,glycan array binding signal (z-score),[22],-0.225
same,glycan array binding signal (z-score),Gal3S(b1-3)GalNAc,-0.165
same,glycan array binding signal (z-score),Gal3S(b1-3)GlcNAc,0.006
same,glycan array binding signal (z-score),[23],-0.06
same,glycan array binding signal (z-score),Gal3S(b1-4)Glc,-0.222
same,glycan array binding signal (z-score),Gal3S(b1-4)Glc6S,-0.072
same,glycan array binding signal (z-score),Gal3S(b1-4)GlcNAc,-0.125
same,glycan array binding signal (z-score),Gal3S(b1-4)GlcNAc6S,-0.026
same,glycan array binding signal (z-score),[24],-0.239
same,glycan array binding signal (z-score),Gal3S4S(b1-4)GlcNAc,-0.127
same,glycan array binding signal (z-score),Gal3S6S(b1-4)GlcNAc,-0.149
same,glycan array binding signal (z-score),Gal3S6S(b1-4)GlcNAc6S,0.125
same,glycan array binding signal (z-score),Gal4S(b1-4)GlcNAc,0.051
same,glycan array binding signal (z-score),Gal4S6S(b1-4)GlcNAc,-0.061
same,glycan array binding signal (z-score),Gal6S(b1-4)Glc,-0.073
same,glycan array binding signal (z-score),Gal6S(b1-4)Glc6S,0.112
same,glycan array binding signal (z-score),Gal6S(b1-4)GlcNAc,-0.01
same,glycan array binding signal (z-score),Gal6S(b1-4)GlcNAc6S,-0.117
same,glycan array binding signal (z-score),GalNAc(a1-3)Gal,0.064
same,glycan array binding signal (z-score),GalNAc(a1-3)GalNAc,-0.091
same,glycan array binding signal (z-score),GalNAc(b1-3)Gal,0.254
